Source: PubChem BioAssay AID485294 (National Center for Advancing Translational Sciences (NCATS), 2010)
About 150 (0.041%) of roughly 370,000 compounds were called active. The shares of active, inactive and inconclusive entries below differ from those in the screen. Calls follow the shape of the dose curve; as a rule, active = well fitted inhibition curve with a large enough effect; inconclusive = small, poorly fitted or top-dose-only effect; inactive = flat fitted curve, though single readings scatter. No potency is given beside an inconclusive call; the fits are too rough.

target: Beta-lactamase (Escherichia coli (strain K12)) (UniProt P00811); assay: qHTS Inhibitors of AmpC Beta-Lactamase (assay with detergent); settings: AmpC hydrolysis of nitrocefin, absorbance 480 nm, 0.01% Triton; series mostly up to 114 µM; also: nearly all actives have a fitted effect of over 25% in size
Method in brief: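 20 mM phosphate pH 7.0 + 0.01% (detergent screen) or 0.0001% Triton X-100; 5.3 nM AmpC reagent; cpd preinc 15 min RT; nitrocefin (800 uM stock) to start; A480 q20 s × 4 min; Activity was normalised to no-enzyme and no-compound control wells.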
Potency is read from the fitted curve at half-maximal effect; tags tell the direction and shape of the fitted curve.

UniProt P00811, sequence (P00811 whole entry, looked up): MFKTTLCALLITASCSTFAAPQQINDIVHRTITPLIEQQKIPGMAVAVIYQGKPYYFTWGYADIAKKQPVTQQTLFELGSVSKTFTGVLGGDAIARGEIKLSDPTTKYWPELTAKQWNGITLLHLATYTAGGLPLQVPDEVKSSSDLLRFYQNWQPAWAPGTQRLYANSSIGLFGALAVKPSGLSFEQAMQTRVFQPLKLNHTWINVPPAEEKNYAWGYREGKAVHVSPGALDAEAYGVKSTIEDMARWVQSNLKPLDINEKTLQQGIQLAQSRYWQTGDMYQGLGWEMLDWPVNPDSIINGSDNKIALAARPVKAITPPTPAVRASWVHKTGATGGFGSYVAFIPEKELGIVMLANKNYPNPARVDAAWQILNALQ

Compound	Potency
COCCn1c(C(C)C)nc2oc3ccccc3c(=O)c2c1=O	inconclusive [inhibitor, partial curve, poor fit]
COc1ccccc1N1CCN(CCC(=O)Nc2cccc(Cl)c2)CC1	inactive
Cn1c(O)c(C=Nc2ccccc2Sc2ccccc2)c(=O)n(C)c1=O	inconclusive [inhibitor, partial curve, poor fit]
CCOC(=O)c1cnc2c(N=Nc3ccccc3)c(N)nn2c1N	inconclusive [inhibitor, full curve, poor fit]
CC(=O)N1CCN(CC(=O)NC(=O)Nc2ccc3c(c2)OCCO3)CC1	inconclusive [inhibitor, full curve, poor fit]
CCOc1c(Cl)cc(CNc2nnnn2C)cc1OC	inactive
CCCN(CCC)CCCNC(=O)C1CCCN(S(=O)(=O)c2cccc3nsnc23)C1 (stereo not drawn)	inactive
O=[N+]([O-])c1ccc(Cl)c(S(=O)(=O)N2CCCCCC2)c1	inconclusive [inhibitor, partial curve]
COc1ccccc1N1CCN(C(c2ccc(N(C)C)cc2)c2nnnn2CCc2ccccc2)CC1 (stereo not drawn)	inconclusive [inhibitor, partial curve, poor fit]
O=C(Cc1cccc([N+](=O)[O-])c1)NCc1nc2cccnc2n1Cc1ccc(F)cc1	inactive
Cn1sccc1=O	inconclusive [inhibitor, full curve, poor fit]
O=C(NCCCN1CCOCC1)c1cccc(S(=O)(=O)NCc2ccccc2)c1	inconclusive [inhibitor, full curve, poor fit]
COc1ccc(C(C)=O)cc1Cn1nc(C)c([N+](=O)[O-])c1C	inconclusive [inhibitor, full curve, poor fit]
Cc1nc(N2CCN(c3ccccn3)CC2)c2c(C)c(C(=O)Nc3ccc(F)cc3Cl)sc2n1	inconclusive [inhibitor, partial curve, poor fit]
O=C(O)CCN1C(=O)c2ccc(Oc3ccc([N+](=O)[O-])cc3)cc2C1=O	inconclusive [inhibitor, full curve, poor fit]
O=C1C=C(N2CCN(C3=CC(=O)CCC3)CC2)CCC1	inconclusive [inhibitor, full curve]
O=S(=O)(c1ccccc1)n1nc(-c2ccccc2)nc1NCc1ccc(Cl)cc1	inconclusive [inhibitor, single point]
COc1ccccc1NC(=O)c1cccc(S(=O)(=O)N2CCN(Cc3ccccc3)CC2)c1	inconclusive [inhibitor, partial curve, poor fit]
C=CCN1C(=O)CS/C1=C(\C#N)S(=O)(=O)c1ccc(C)cc1	inactive
COc1ccc(NC(=O)C2CCCN(c3ncnc4onc(-c5ccc(F)cc5)c34)C2)cc1 (stereo not drawn)	inactive
Cc1ccc[n+](CC(=O)Nc2cccc([N+](=O)[O-])c2)c1	inactive
CC(Sc1nnc(N)s1)C(=O)Nc1ccc2c(c1)OCO2 (stereo not drawn)	inconclusive [inhibitor, full curve, poor fit]

Compound	Potency
CN(C)c1cc(O)c(C(=S)Nc2ccccc2)c(N(C)C)c1	inactive
COCCCn1c(=S)[nH]c2ncccc2c1=O	inactive
CCCc1cc(=O)[nH]c(NCCc2ccccc2)n1	inconclusive [inhibitor, full curve, poor fit]
CCc1ccc2oc(-c3cccc(NC(=O)c4ccc(N5CCC(C)CC5)c([N+](=O)[O-])c4)c3)nc2c1	inactive
O=C(Cn1cnc2c(nnn2-c2ccc(F)cc2)c1=O)N1CCCC1	inconclusive [inhibitor, full curve, poor fit]
CC(Sc1ccc(Cl)cc1)C(=O)Nc1ccccc1-c1ccccc1 (stereo not drawn)	inconclusive [inhibitor, full curve, poor fit]
O=C1CC(SC(=Nc2ccccc2)Nc2ccccc2)C(=O)N1c1ccc(Cl)c(Cl)c1 (stereo not drawn)	inconclusive [inhibitor, full curve, poor fit]
Cc1ccc(NC(=O)CCNC(=O)c2ccc(Cl)cc2)nc1	inactive
O=C(CNC(=S)N(Cc1ccccc1Cl)C1CCCC1)NCCCN1CCOCC1	inconclusive [inhibitor, full curve, poor fit]
Cc1cc(C)n(CCOC(=O)c2sc3ccccc3c2Cl)n1	inactive
CCOC(=O)N(NC(=O)C(O)(CC(C)C)CC(C)C)c1ccccc1	inactive
COc1cccc(-c2nc(CS(=O)(=O)CC(=O)NC3CCC(C)CC3)c(C)o2)c1 (stereo not drawn)	inconclusive [inhibitor, single point]
COC(=O)c1ccc(C2c3c(oc4cc(C)c(C)cc4c3=O)C(=O)N2CCCN(C)C)cc1 (stereo not drawn)	inactive
CC(=O)c1ccc(N2CCCC2)c(F)c1	inconclusive [inhibitor, full curve, poor fit]
Cc1ccc(S(=O)(=O)CCC(=O)OCC(=O)c2cc(C)n(C)c2C)cc1	inconclusive [inhibitor, full curve, poor fit]
CCOc1ccccc1CN1CCN(Cc2c[nH]c3ccccc23)CC1CCO (stereo not drawn)	inconclusive [inhibitor, full curve]
Cc1ccc(CNC(=O)CN(C(=O)C2(C)CC(=O)N=C3C=CC=CN32)c2ccc(F)cc2)cc1 (stereo not drawn)	inconclusive [inhibitor, full curve, poor fit]
Cc1cc2oc3c(c(=O)c2cc1C)C(c1ccc(C(C)C)cc1)N(CCCN1CCOCC1)C3=O (stereo not drawn)	inconclusive [inhibitor, partial curve, poor fit]
CCOc1ccc(NC(=O)Nc2ccc3nccnc3c2)cc1	inconclusive [inhibitor, full curve, poor fit]
Cc1cc(C)cc(NC(=O)C2CCN(C(=O)[C@@H]3Cc4ccccc4CN3)CC2)c1	inactive
CC(=O)Nc1ccc(-c2sc(Nc3ccccc3)n[n+]2C)cc1	inconclusive [inhibitor, full curve, poor fit]
